This note sets out measurements from paper PMC4336329 (PLoS ONE, 2015).

Hit rate of the full screen: of about 310,000 compounds, about 2,200 (0.71%) showed an effect of 50% or more. The effect is printed as a negative number. The list shows a part of the results.

The target in the assay is human ether-à-go-go-related gene (hERG) potassium channel (human, UniProt Q12809). The assay is described as follows: primary screen, population patch clamp on CHO cells stably expressing hERG.
Chain of human ether-à-go-go-related gene (hERG) potassium channel (Q12809 whole entry, looked up): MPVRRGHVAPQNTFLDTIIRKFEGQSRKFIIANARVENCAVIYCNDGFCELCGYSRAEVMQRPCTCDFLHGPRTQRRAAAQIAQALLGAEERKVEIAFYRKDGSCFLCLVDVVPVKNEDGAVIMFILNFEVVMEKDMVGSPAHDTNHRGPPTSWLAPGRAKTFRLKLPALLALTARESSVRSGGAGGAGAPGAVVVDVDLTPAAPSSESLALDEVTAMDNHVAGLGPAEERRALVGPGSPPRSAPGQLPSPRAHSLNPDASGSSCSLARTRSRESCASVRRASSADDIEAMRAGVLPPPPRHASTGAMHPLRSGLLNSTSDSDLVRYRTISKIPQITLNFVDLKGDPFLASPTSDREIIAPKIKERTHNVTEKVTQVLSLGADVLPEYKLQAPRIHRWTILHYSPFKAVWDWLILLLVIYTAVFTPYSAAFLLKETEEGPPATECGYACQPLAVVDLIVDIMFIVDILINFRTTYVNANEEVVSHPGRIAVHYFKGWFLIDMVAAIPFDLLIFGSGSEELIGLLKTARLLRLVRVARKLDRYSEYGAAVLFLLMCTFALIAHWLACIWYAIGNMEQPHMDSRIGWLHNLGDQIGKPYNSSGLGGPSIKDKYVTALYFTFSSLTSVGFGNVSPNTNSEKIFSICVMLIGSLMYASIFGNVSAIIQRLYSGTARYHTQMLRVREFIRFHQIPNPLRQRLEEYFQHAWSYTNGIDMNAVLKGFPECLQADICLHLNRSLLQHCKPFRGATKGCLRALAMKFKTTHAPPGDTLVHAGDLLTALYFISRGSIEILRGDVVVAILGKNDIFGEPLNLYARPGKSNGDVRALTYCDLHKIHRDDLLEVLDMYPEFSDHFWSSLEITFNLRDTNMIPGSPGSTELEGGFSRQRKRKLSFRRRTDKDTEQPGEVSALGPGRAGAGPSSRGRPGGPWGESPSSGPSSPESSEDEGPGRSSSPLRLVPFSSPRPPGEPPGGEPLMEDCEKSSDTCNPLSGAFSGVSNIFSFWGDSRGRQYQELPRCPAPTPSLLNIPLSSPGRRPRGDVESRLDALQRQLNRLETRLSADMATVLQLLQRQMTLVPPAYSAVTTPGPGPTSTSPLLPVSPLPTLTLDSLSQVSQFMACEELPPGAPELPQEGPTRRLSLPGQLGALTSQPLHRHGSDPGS
Take `Cc1ccc(C(=O)C(C)OC(=O)c2ccc(Cl)nc2)cc1` (stereo not drawn): the “hERG current change (%, negative = inhibition) at 1uM” value amounted to 3.15%.

`CCn1c(CNc2ccc(F)cc2)nnc1SCC(=O)Nc1ccc(OC)cc1`: the “hERG current change (%, negative = inhibition) at 1uM” value is 5.57%.

For `CC(C)CNC(=O)[C@H]1N2C(=O)c3ccccc3C2SC1(C)C` (stereo partly drawn), the “hERG current change (%, negative = inhibition) at 1uM” value came out at 14.5%.

`O=C(NC1CCCCCC1)C1CCN(S(=O)(=O)c2cnc[nH]2)CC1`: the “hERG current change (%, negative = inhibition) at 1uM” value was 8.28%.

Turning to `O=C1Nc2ccc(Br)cc2/C1=C/C(=O)c1ccc2c(c1)OCO2`, the “hERG current change (%, negative = inhibition) at 1uM” value amounted to 11.9%.

Consider `CC(C)CCOc1ccc(C2=NNC(=O)CC2)cc1`, for which the “hERG current change (%, negative = inhibition) at 1uM” value was found to be 12.7%.

Consider `Cc1cccc(/C=N/NC(=O)C2CCCNC2=O)c1` (stereo not drawn), for which the “hERG current change (%, negative = inhibition) at 1uM” value is 14.2%.

For `CNC(=O)/C(C#N)=C/c1c(N2CCN(c3cccc(Cl)c3)CC2)nc2c(C)cccn2c1=O`, the “hERG current change (%, negative = inhibition) at 1uM” value came to 14.7%.

Take `O=c1c2cnn(-c3ccccc3)c2ncn1Cc1cccc(Cl)c1`: the “hERG current change (%, negative = inhibition) at 1uM” value is listed as 13.8%.

Consider `COc1ccc(-c2nc(-c3ccc(Br)cc3)no2)c(OC)c1`, for which the “hERG current change (%, negative = inhibition) at 1uM” value is recorded as -0.439%.

For `CCCNS(=O)(=O)c1ccc(OCC(=O)NCCCOC)cc1`, the “hERG current change (%, negative = inhibition) at 1uM” value is 2.25%.

Regarding `COc1ccc(CCCNC(=O)C2CCC(=O)N(CCc3cccc(F)c3)C2)cc1` (stereo not drawn), the “hERG current change (%, negative = inhibition) at 1uM” value is -16.6%.

In the case of `CC(C)CCn1c2ccccc2c2cc(CC(N)=O)ccc21`, the “hERG current change (%, negative = inhibition) at 1uM” value came to 10.2%.

With `Cc1ccc(NC(=O)C2=C(O)CCn3c2nc2ccccc23)cc1`, the “hERG current change (%, negative = inhibition) at 1uM” value was 4.13%.

On to `Cc1nn(-c2ccc3ccccc3c2)c(=O)c2ccccc12`, for which the “hERG current change (%, negative = inhibition) at 1uM” value was found to be 19.1%.

Take `CC1(C)CC(=O)C(C=Nc2ccccc2Sc2ccccc2)=C(O)C1`: the “hERG current change (%, negative = inhibition) at 1uM” value came out at 8.97%.

On to `Cc1csc(SCCN2C(=O)c3ccccc3C2=O)n1`, for which the “hERG current change (%, negative = inhibition) at 1uM” value is 11.7%.

`COc1ccc(Cc2nc3ccc(C(=O)NC4CCOC4)cc3o2)cc1` (stereo not drawn): the “hERG current change (%, negative = inhibition) at 1uM” value was determined as 17.6%.

As to `Cc1ccc(C(=O)NCCCc2ccccc2)c(C)c1`, the “hERG current change (%, negative = inhibition) at 1uM” value was 16.2%.

As for `Cc1ccc2[nH]c3c(NCc4ccco4)ncnc3c2c1`, the “hERG current change (%, negative = inhibition) at 1uM” value is recorded as -0.139%.

`Cc1ccc(OCCN2C(=O)CSC2=O)cc1`: the “hERG current change (%, negative = inhibition) at 1uM” value is listed as 3.39%.

With `Cc1ccc(C)c(S(=O)(=O)N2CCN(c3ncccn3)CC2)c1`, the “hERG current change (%, negative = inhibition) at 1uM” value is on record as 12%.

Turning to `Cc1cc(C)c(C(=O)COC(=O)CCn2c(C)csc2=O)cc1C`, the “hERG current change (%, negative = inhibition) at 1uM” value was 3.15%.

For the compound `Cc1ccc(S(=O)(=O)N2CCN(C(=O)c3ccco3)CC2)cc1`, the “hERG current change (%, negative = inhibition) at 1uM” value is given as 11.4%.

Take `CN(C)c1ccc(/C=N/NC2=NS(=O)(=O)c3ccccc32)cc1`: the “hERG current change (%, negative = inhibition) at 1uM” value is on record as 9.35%.

With `C=CCn1c(SCC(=O)Nc2cccc(S(N)(=O)=O)c2)nnc1C1CCCCC1`, the “hERG current change (%, negative = inhibition) at 1uM” value came to 3.85%.

Turning to `COc1ccccc1N1C(=O)S/C(=C\c2cccs2)C1=O`, the “hERG current change (%, negative = inhibition) at 1uM” value is recorded as 15.2%.

Take `CC(C)=CCN1CCN(Cc2cccc3nccnc23)CC1CCO` (stereo not drawn): the “hERG current change (%, negative = inhibition) at 1uM” value is -1.39%.

Take `CCn1nc(C(=O)OCC(=O)c2c[nH]c3ccccc23)c2ccccc2c1=O`: the “hERG current change (%, negative = inhibition) at 1uM” value is on record as -0.717%.

As to `CCN(CC)CCNC(=O)c1ccc(NC(=O)C2CC(=O)N(c3ccc4c(c3)OCCO4)C2)cc1` (stereo not drawn), the “hERG current change (%, negative = inhibition) at 1uM” value was found to be 11.2%.

`Cl.c1ccc(CCn2nnnc2C(c2cccs2)N2CCN(Cc3ccc4c(c3)OCO4)CC2)cc1` (stereo not drawn): the “hERG current change (%, negative = inhibition) at 1uM” value was -1.71%.

As for `Cc1ccc(C(=O)N/C(=C/c2ccco2)C(=O)NCC2CCCO2)cc1` (stereo not drawn), the “hERG current change (%, negative = inhibition) at 1uM” value was found to be 0.646%.

As to `CCN(Cc1ccccc1)Cc1c(F)cccc1F`, the “hERG current change (%, negative = inhibition) at 1uM” value was determined as 1.77%.

For the compound `COc1cccc(CC(NC(C)=O)C(=O)NC2CCN(c3c4c(nc5ncnn35)CCC4)CC2)c1OC` (stereo not drawn), the “hERG current change (%, negative = inhibition) at 1uM” value worked out at 12.2%.

Regarding `Cc1ccn(Cc2n[nH]c(=S)n2Cc2ccccc2)n1`, the “hERG current change (%, negative = inhibition) at 1uM” value was determined as 1.72%.

Consider `CC(C)CN1CCN(Cc2cccc3ncccc23)CC1CCO` (stereo not drawn), for which the “hERG current change (%, negative = inhibition) at 1uM” value came out at 7.1%.

Take `CCc1cc(=O)oc2c(CNCc3ccc(OC)cc3OC)c(O)c(Cl)cc12.Cl`: the “hERG current change (%, negative = inhibition) at 1uM” value came out at 9.76%.

Consider `CC(=O)Nc1ccc(NS(=O)(=O)c2cc(Cl)ccc2Cl)cc1`, for which the “hERG current change (%, negative = inhibition) at 1uM” value is listed as -1.27%.

For the compound `O=C(CNS(=O)(=O)c1c(Cl)cccc1Cl)OCC(=O)c1ccc[nH]1`, the “hERG current change (%, negative = inhibition) at 1uM” value is recorded as 11.5%.

For `CCOc1cc(CNc2ccc(OC)cc2)cc(Br)c1OCC(=O)NC(C)(C)C`, the “hERG current change (%, negative = inhibition) at 1uM” value is recorded as 7.47%.

As to `O=C(COc1ccc(Br)cc1CO)Nc1ccc(S(=O)(=O)N2CCCCC2)cc1`, the “hERG current change (%, negative = inhibition) at 1uM” value is recorded as 9.86%.

For `O=C1c2ccccc2C(Nc2ccc(S(=O)(=O)N3CCOCC3)cc2)N1c1cccnc1` (stereo not drawn), the “hERG current change (%, negative = inhibition) at 1uM” value is listed as -1.69%.

In the case of `COc1ccc(NC(=O)c2ccc3ccccc3n2)cc1S(=O)(=O)Nc1ccccc1Cl`, the “hERG current change (%, negative = inhibition) at 1uM” value is 19.4%.

For `COc1ccc(C)cc1NC(=O)c1cc2ccccc2o1`, the “hERG current change (%, negative = inhibition) at 1uM” value was determined as 10%.

On to `CCOC(=O)C1=C(C)NC2=C(C(=O)CC(c3ccc(OC)c(OC)c3)C2)C1c1ccc(C)o1` (stereo not drawn), for which the “hERG current change (%, negative = inhibition) at 1uM” value is -11.2%.
